{"source": "paper PMC5700166", "note": "The list shows a part of the results, in another mix than the full data. The list includes weakly bound sequences."}
{"target": "T1, GST-Dm-Relish (UniProt Q94527)", "T1 sequence": "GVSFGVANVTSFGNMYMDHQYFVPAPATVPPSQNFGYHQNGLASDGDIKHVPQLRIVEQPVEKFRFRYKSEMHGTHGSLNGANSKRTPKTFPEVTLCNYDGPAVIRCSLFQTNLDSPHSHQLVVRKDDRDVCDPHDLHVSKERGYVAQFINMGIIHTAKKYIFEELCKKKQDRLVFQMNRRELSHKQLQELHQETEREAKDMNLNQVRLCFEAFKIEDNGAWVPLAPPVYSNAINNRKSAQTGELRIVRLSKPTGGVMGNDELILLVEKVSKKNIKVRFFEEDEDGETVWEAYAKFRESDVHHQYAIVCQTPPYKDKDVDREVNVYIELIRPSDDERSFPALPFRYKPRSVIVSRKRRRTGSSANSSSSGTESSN", "assay": "protein-binding microarray (PBM)", "settings": "PBM: ~300 nM protein, 6 mM HEPES pH 7.8, 80 mM KCl, 0.5 mM EDTA, 0.5 mM EGTA, 6% glycerol, 35 ng/ul poly-dIdC, 1% milk, 1 h, room temperature; Ap Aiptasia and Nv Nematostella (sea anemones) / Co Capsaspora / Aq Amphimedon (sponge) / Dm Drosophila / Hu human; RHD is the Rel homology domain; high values mean tight binding; most listed sequences are background and not binding sites; double strand, one strand shown", "units": {"binding signal": "z-score"}}
{"sequence": "CCGATTAACATCAGGGACAAAAATGATGTTAATCGGGTCTTGATTCGCTTGACGCTGCTG", "binding signal": 0.953}
{"sequence": "CCGATTAACATCACCTATTCCCCTGATGTTAATCGGGTCTTGATTCGCTTGACGCTGCTG", "binding signal": 2.23}
{"sequence": "CCGATTAACATCAGTTGGGAAAATGATGTTAATCGGGTCTTGATTCGCTTGACGCTGCTG", "binding signal": 0.639}
{"sequence": "CCGATTAACATCAGGGAGTGCCCTGATGTTAATCGGGTCTTGATTCGCTTGACGCTGCTG", "binding signal": 3.85}
{"sequence": "CCGATTAACATCAGTGGGAAAAATGATGTTAATCGGGTCTTGATTCGCTTGACGCTGCTG", "binding signal": 0.998}
{"sequence": "CCGATTAACATCAAAGCATTCCCTGATGTTAATCGGGTCTTGATTCGCTTGACGCTGCTG", "binding signal": 0.807}
{"sequence": "CCGATTAACATCAGGGAAATTAATGATGTTAATCGGGTCTTGATTCGCTTGACGCTGCTG", "binding signal": 2.54}
{"sequence": "CCGATTAACATCAGAATTCCCGCTGATGTTAATCGGGTCTTGATTCGCTTGACGCTGCTG", "binding signal": 3.89}
{"sequence": "CCGATTAACATCAGGCTTTCCCCTGATGTTAATCGGGTCTTGATTCGCTTGACGCTGCTG", "binding signal": 7.38}
{"sequence": "CCGATTAACATCAAGGAATCCCCTGATGTTAATCGGGTCTTGATTCGCTTGACGCTGCTG", "binding signal": 10.1}
{"sequence": "CCGATTAACATCAGGACATACCCTGATGTTAATCGGGTCTTGATTCGCTTGACGCTGCTG", "binding signal": 2.79}
{"sequence": "CCGATTAACATCAGGACCTCCCCTGATGTTAATCGGGTCTTGATTCGCTTGACGCTGCTG", "binding signal": 5.19}
{"sequence": "CCGATTAACATCAGGGGGTACAATGATGTTAATCGGGTCTTGATTCGCTTGACGCTGCTG", "binding signal": 2.37}
{"sequence": "CCGATTAACATCAACAGGGAAAATGATGTTAATCGGGTCTTGATTCGCTTGACGCTGCTG", "binding signal": 1.32}
{"sequence": "CCGATTAACATCACATTCCCCCCTGATGTTAATCGGGTCTTGATTCGCTTGACGCTGCTG", "binding signal": 4.58}
{"sequence": "CCGATTAACATCAAGGGGGGGTGTGATGTTAATCGGGTCTTGATTCGCTTGACGCTGCTG", "binding signal": 4.4}
{"sequence": "CCGATTAACATCAGAAATGGGAATGATGTTAATCGGGTCTTGATTCGCTTGACGCTGCTG", "binding signal": 0.586}
{"sequence": "CCGATTAACATCAAAACTCCCCATGATGTTAATCGGGTCTTGATTCGCTTGACGCTGCTG", "binding signal": 5.96}
{"sequence": "CCGATTAACATCAGGGGGAAATATGATGTTAATCGGGTCTTGATTCGCTTGACGCTGCTG", "binding signal": 4.77}
{"sequence": "CCGATTAACATCAGGGAATTCACTGATGTTAATCGGGTCTTGATTCGCTTGACGCTGCTG", "binding signal": 8.25}
{"sequence": "CCGATTAACATCAAAAAGCCCCGTGATGTTAATCGGGTCTTGATTCGCTTGACGCTGCTG", "binding signal": 8.47}
{"sequence": "CCGATTAACATCAAGGGGAAAACTGATGTTAATCGGGTCTTGATTCGCTTGACGCTGCTG", "binding signal": 5.32}
{"sequence": "CCGATTAACATCAGGAGATACCCTGATGTTAATCGGGTCTTGATTCGCTTGACGCTGCTG", "binding signal": 3.18}
{"sequence": "CCGATTAACATCACCCATGGGAATGATGTTAATCGGGTCTTGATTCGCTTGACGCTGCTG", "binding signal": 1.03}
{"sequence": "CCGATTAACATCAAAACTTCCCATGATGTTAATCGGGTCTTGATTCGCTTGACGCTGCTG", "binding signal": 4.52}
{"sequence": "CCGATTAACATCAAGCCTGTCCCTGATGTTAATCGGGTCTTGATTCGCTTGACGCTGCTG", "binding signal": -0.195}
{"sequence": "CCGATTAACATCAATCCCCACATTGATGTTAATCGGGTCTTGATTCGCTTGACGCTGCTG", "binding signal": 2.63}
{"sequence": "CCGATTAACATCACCCCTTCCCCTGATGTTAATCGGGTCTTGATTCGCTTGACGCTGCTG", "binding signal": 2.5}
{"sequence": "CCGATTAACATCACGGGGATTTCTGATGTTAATCGGGTCTTGATTCGCTTGACGCTGCTG", "binding signal": 9.88}
{"sequence": "CCGATTAACATCACAAAAGTCCCTGATGTTAATCGGGTCTTGATTCGCTTGACGCTGCTG", "binding signal": 7.55}
{"sequence": "CCGATTAACATCACGTACTTCCCTGATGTTAATCGGGTCTTGATTCGCTTGACGCTGCTG", "binding signal": 7.92}
{"sequence": "CCGATTAACATCACATGGGAAACTGATGTTAATCGGGTCTTGATTCGCTTGACGCTGCTG", "binding signal": 0.399}
{"sequence": "CCGATTAACATCAACTCGGGAAATGATGTTAATCGGGTCTTGATTCGCTTGACGCTGCTG", "binding signal": 0.696}
{"sequence": "CCGATTAACATCAAGAAACCCCCTGATGTTAATCGGGTCTTGATTCGCTTGACGCTGCTG", "binding signal": 10}
{"sequence": "CCGATTAACATCAACAAACCCCCTGATGTTAATCGGGTCTTGATTCGCTTGACGCTGCTG", "binding signal": 7.26}
{"sequence": "CCGATTAACATCAGGGGCCGTAATGATGTTAATCGGGTCTTGATTCGCTTGACGCTGCTG", "binding signal": 0.71}
{"sequence": "CCGATTAACATCACCAATTTCCCTGATGTTAATCGGGTCTTGATTCGCTTGACGCTGCTG", "binding signal": 1.84}
{"sequence": "CCGATTAACATCAAGGGGGTACTTGATGTTAATCGGGTCTTGATTCGCTTGACGCTGCTG", "binding signal": 2.88}
{"sequence": "CCGATTAACATCACATGTGGGAATGATGTTAATCGGGTCTTGATTCGCTTGACGCTGCTG", "binding signal": 0.788}
